# The RNAGym collection of RNA variant scans (doi:10.7554/elife.90254)
# The source gives no read counts; variants with many changes may rest on few reads.
# B1: OR4K15 (parent)
# chain: GUUAACGGUCAUAGGCCAUGGAAACUAGGAGCACCAUUUCGCUGCCAGUGAAGAAAUGAACAAAGAAAAUCUGGGCCAGGCAGGCAUCAAAAGAAAUAGUCUUGCGCUCAACCAGAAAGUCUGUAAUCAUUUUAAGGGUA
# Variants of: B1
# Assay: self-cleavage, relative activity (ratio to wild type); higher = more cleavage; in vitro, sequencing; the parent is a self-cleaving ribozyme
row,Variant,self-cleavage
1,A56G A91C A135G,1.52
2,A60G A68G A90G A114U,0.03
3,A59G A98G U100G A135G,0.93
4,A60G A67G A69G A91G,0.52
5,A60G U87C U122C,0.2
6,A59G A67G A98U,1.36
7,A62G A66G U87A,1.17
8,A62G A78U U131C,0.09
9,A59G A68G A95G U122A,2.37
10,A59G A68G G80A A86U,0.42
11,A56G C105G A116U,0.01
12,A60G A95G C105U,0.15
13,A59G A60G A82G U132C,0.33
14,G58A A60U A69G,1.4
15,A59G U124A A140G,0.53
16,U57C A117G A134G,1.36
17,A62G A82G U102C,0.83
18,A59G A64G U97C U132C,1.48
19,A59G U103C U108C,0.01
20,U57A A59G U132C,0.54
21,A60G A62G G123U,1.07
22,A62G A69U G137A,0.69
23,A59C U103A A125G,0.15
24,A60G G80A A117G,0.22

row,Variant,self-cleavage
1,A62G A78G A114G,0.06
2,A60G A67G A94U,1.27
3,A60G U102C U120A,2.52
4,A59G A68G A92U,1.7
5,A60G A111G A118G,0.01
6,A56U U72C U108A,0.02
7,A56G G80A A89G A92G A116G,0.1
8,G58U U102C A116G,0.93
9,A59G U122C A140U,1.5
10,A59G A118G U122A,1.01
11,A60G A64G A82G,0.47
12,U57C A63U U131C U133A,0.92
13,U57C U70C U131C,0.43
14,A59G A60U U122C,1.67
15,A60G A64U G83A U133C,0.73
16,A60C A95G U132C,2.49
17,U57A A66U A126G,0.82
18,A60G A126G U132C,1.31
19,A60U A96U U103C A134U,1.37
20,A60C A82U U108C,0.01
21,A59G A64G A110G A116G U127C,0.04
22,A60G A67G A95G A116G A129G U132C,0.23
23,A59G A86G G115C,0.05
24,U57A A68G U87C A110G,0.11

row,Variant,self-cleavage
1,U57G A69G A86G U87C U133C,0.47
2,A59U U120C U132C,0.46
3,C61U A63C U97C,1.85
4,A59U A82G U120C,0.31
5,A60G A67G G83A U127A,1.24
6,U57C A94G A117U,0.76
7,C61A A66G A78G,0.14
8,A56G U57C A96G U103C A116U,0.03
9,C61U C71A A94C U122C C128U,0.04
10,A59G U103C C113A,0.09
11,U57C A89U U122C,1.18
12,A59G A86G C88U A92G,0.88
13,U57A G65A A92G,1.04
14,U57A A110G A134G,0.05
15,U57C A95G U124C,1.5
16,A59U A86U A117G,0.94
17,A59G U87C U100C,0.97
18,A56G C61U A111G,0.04
19,A56G A69G A110G U133C,0.09
20,A56G A89G U133C,0.45
21,A56G C81U U102C,0.61
22,A59G A68G A140G,1.23
23,A59G A95G U120C,1.42
24,A60G A63G A114G,1.18

row,Variant,self-cleavage
1,A60G U102G A117G,0.77
2,A62C A90G A96G A126G,0.39
3,U57A A59C A66G A78C A82G A92G,0.33
4,A60G G99U A110U,0.29
5,A56G A69G U103C,1.13
6,G58A U70C A94G U100A,0.06
7,A56G A116U A117U U122C,0.05
8,U57C A118U U130C,0.3
9,A56G G80A U100C,0.38
10,A59U C77U U97C A98G U132C,1.69
11,A60G C81U A118G,0.13
12,A60G A62G A110G,0.14
13,A59G A66U U122C,1.46
14,A60G A126G U131C,0.26
15,A59G U70C U102C,0.86
16,U57C U70C C77U A140G,1.31
17,A59G A78G U100C,0.24
18,A59G A114G U131C,0.39
19,U57G A94G U103C,0.41
20,A59G A62G U120C,0.92
21,U57A U87C U124A,0.65
22,A59U A60G A134G,1.3
23,A59U U72A G84A U124A,0.07
24,A62G A67G A96G,1.59

row,Variant,self-cleavage
1,A56G A96G U127A U131C,2.54
2,A56G A82G A126G,0.33
3,A60G A62G A69G,1.22
4,U57A A67G G75A U108C A117G A129U,0.01
5,A59G U132C A140G,1.31
6,A59G A116G U130C,0.16
7,A59G A67U A68G U124C,0.81
8,A60G A98G U102A,0.17
9,U57A U70C U100G,0.41
10,A60G A118G A135G,1.22
11,A60U A67U A78G C101U U131C,0.05
12,A56G A89G A94G,0.92
13,U57C A62G U102C,2.65
14,A62G A68G U103A A129G,0.45
15,A56G A86G A117G,1.57
16,U57A A110U A117G,1.09
17,U57A G74A A111G U132C,0.01
18,A59U A62G G99A,0.56
19,A60G A111G U120C,0.01
20,A59G A69G U122C,0.39
21,U57C A60G A117G A125G,0.19
22,A56U G93A A116G A117G,0.73
23,A60G A68G U100C,1.59
24,A59G U87A U130C,2

row,Variant,self-cleavage
1,U57C U97C G136A,0.85
2,A60G A95G A96G U122C,0.44
3,A59G A60U A82C,0.14
4,A60G A118G A126G,0.42
5,U57C U103C U122A,0.82
6,A59G A90U U102C A116G,0.93
7,A60G G75C U108C U122A,0.01
8,U57G A68U A111U,0.08
9,U57C A117G A118G U127C,0.52
10,A56U G79A A92G U102C,0.1
11,U57C A63G A64U A69G U139A,0.96
12,A60G A95G A134G,1.76
13,U57C A67G U127A,0.57
14,A59G G84U A90G,0.53
15,A60G A63G A116G,0.39
16,U57C A86C G93U A98U A117G U130C U131C,0.25
17,A60G A63C C77U A92G,2.06
18,A59G A62G U120A A129G,1.76
19,A60C U87C U122C U127C,0.72
20,A60G A67G A86G A117G A118G,1.94
21,A56G A90G U124C U132C,0.88
22,A59G A91G U133A,0.53
23,A59G A96U A126G G137A,1.41
24,C61U C77U G123A,2.62

row,Variant,self-cleavage
1,A60G C112U A114G,0.01
2,A56G U87A U120C U139C,1.1
3,U57C A62G A68G,0.96
4,A62G A78G A118G,0.13
5,U57C A67G U130C,0.68
6,U57C A95G C107U A117G,0.01
7,A59G U87A U100C U102A,1.44
8,A56G A86G U102C,2.2
9,A59G A114U A126C,0.01
10,A56G U100A U127A,0.84
11,U57A U108C A118G A129G,0
12,A59G G79A A82U,0.13
13,A59G A90G A95G U97C U122A,0.76
14,U57G A62G U108C,0.02
15,A62C A68G A69G A92G A98G,0.22
16,A56G U57C A63G,0.46
17,A56G G74A U132C,0.21
18,A60G C85A A125G,0.65
19,A59G U102C C112A A118G,0.01
20,A59G C109U U132C,0.24
21,A59G A82G A90G A111G U139A,0.02
22,A59G G104U U120C A135G,0.01
23,A59G U131C U132C,0.12
